Laboratory results reported in publication PMC11077052 (Nucleic Acids Research, 2024).

Target: Human apurinic/apyrimidinic endonuclease 1 (human, UniProt P27695)
Assay: ITC

Chain of UniProt P27695 (P27695 whole entry): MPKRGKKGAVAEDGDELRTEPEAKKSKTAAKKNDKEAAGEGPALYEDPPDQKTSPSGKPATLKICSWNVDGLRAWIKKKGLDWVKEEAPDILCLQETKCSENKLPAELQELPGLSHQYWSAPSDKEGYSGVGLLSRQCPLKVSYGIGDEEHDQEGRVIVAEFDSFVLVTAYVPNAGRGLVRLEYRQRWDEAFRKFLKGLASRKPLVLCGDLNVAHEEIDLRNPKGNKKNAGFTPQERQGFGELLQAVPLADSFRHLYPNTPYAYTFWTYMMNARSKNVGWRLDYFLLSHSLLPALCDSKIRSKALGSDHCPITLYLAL

fold increase of binding affinity with biotin against without biotin: ~6 fold
B1: Avidin (natural protein, UniProt P02701 25-152, looked up)
chain: ARKCSLTGKWTNDLGSNMTIGAVNSRGEFTGTYITAVTATSNEIKESPLHGTQNTINKRTQPTFGFTVNWKFSESTTVFTGQCFIDRNGKEVLKTMWLLRSSVNDIGDDWKATRVGINIFTRLRTQKE
modifications: glycosyl residues (positions not stated)
